According to a collection of fitness landscapes (doi:10.1016/j.celrep.2020.107928):
Whole data set: some 81,000 sequences, median “one-hybrid fitness for binding parS DNA” near -0.17, cut for the highest 2% near 0.51. The list shows a part of the results.

B1: Caulobacter ParB omega fusion; a variant is named by its letters at X, in order, B8GW30 (parent)
chain: MESVVVGEPGMSEGRRGLGRGLSALLGEVDAAPAQAPGEQLGGSREAPIEILQRNPDQPRRTFREEDLEDLSNSIREKGVLQPILVRPSPDTAGEYQIVAGERAWRAAQRAGLKTVPIMVRELDDLAVLEIGIIENVQRADLNVLEEALSYKVLMEKFERTQENIAQTIGKSXSHVANXMRLLXLPDEVQSYLVSGELTAXHARAIAAAADPVALAKQIIEGGLSVRETEALARKAPNLSAGKSKGGRPPRVKDTDTQALESDLSSVLGLDVSIDHRGSTGTLTITYATLEQLDDLCNRLTRGI

Variants of: B1
Assay: one-hybrid fitness for binding parS DNA (scaled: cognate 1, non-cognate 0); higher = stronger binding
Conditions: with parS DNA site
Method in brief: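 Caulobacter ParB libraries with four specificity codons randomised were screened by bacterial one-hybrid selection in the E. coli USO strain, using a HIS3 reporter whose site lies 19 bp from the promoter. Selection ran for 48 hours at 37°C on M9 lacking histidine, with 0.1 mM IPTG and 5 mM 3-AT. Plasmids were Illumina-sequenced before and after selection, three replicate libraries were pooled, and variants with under 10 reads were dropped. Fitness is the log change in each variant's read ratio to wild type, rescaled against the cognate and non-cognate sites.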

one-hybrid fitness for binding parS DNA, 0.976:
RFAS

one-hybrid fitness for binding parS DNA, 0.563:
RWEG

one-hybrid fitness for binding parS DNA, 0.451:
RIEA

one-hybrid fitness for binding parS DNA, 0.205:
NAKN

one-hybrid fitness for binding parS DNA, ≤ 0.2:
YDLA
QFER
LYTA
PQIC
PVHM
PDMV
ARKS
CPTM
EART
AKGG
IPGC
GMVM
KPLI
NTPH
NQLS
LKRM
HKDS
TKRA
VDIA
DNSS
TVRW
AQDK
MWHR
VIPV
SCSA
FAHR
KEGS
LNNM
IYQS
QQFS
EGHG
KIYN
GNQH
TVKC
FTCG
QLPE
QGFF
TQCR
SYFS
DGSY
PIAG
HPTF
LVHA
LGRA
DGRS
SWPW
DQRT
MSQR
MHSG
HGKR
CNFD
PQQA
KPVQ
HEHN
VRRH
PHIG
LVVH
RTPE
SGIC
DPLT
VAAN
VPHC
AEAG
QKDH
SATF
TTPN
PWGG
CNYC
QWGR
VINS
VADS
EAEP
LRDM
PRKY
QIAM
LSMV
FPYI
TSEN
DVMA
HEPG
SNSS
HSIL
NLIA
VCVG
QSQI
VVLR
TSRE
RWLM
VQPS
ESLF
SMHS
KYIF
IQNW
SFPK
DAGD
PAWQ
EGRA
REQV
CCNT
LKVF
HAIR
RMRD
QAWT
DSRM
VPAW
SNQT
NDPG
HICA
SDHH
GGVT
FIIR
EAPG
HVAA
RKVH
PLQY
VYWM
ADGC
YVGT
KHGV
MQIC
QKLF
HTKT
QTQK
PPDS
EPYD
LLLI
KSSW
AIVW
CRAC
CRGA
IRPN
PDLT
ELVL
FLFR
TVML
GKPI
PWHI
MSMC
AMAC
KQCC
LLES
ATWR
PCKC
PHAV
TLPQ
TMLY
TRHS
LHNR
CKFF
HIRY
RIHH
RHKL
GVPD
GAMN
GSET
YRSL
TSFK
HATG
FMSK
NYES
TGQC
CPAI
FTWF
YRPS
LMPG
SRHK
QGLL
GRQC
SEVC
FRLF
FAGC
EQLI
SVTV
FVLT
HKQS
NIRW
MSEG
AQQY
QTMT
QISI
RPRF
YHCF
CRSE
PVER
TFTT
YFNR
KRRS
NVAD
RMKK
PYNL
TGAY
VNVT
AMAF
QKEC
DPAN
VQNR
QLLV
HGIT
TTDH
ASTM
EPYK
TTRV
LECA
RRMW
KGWY
YTGV
DITR
MSDC
NVHL
SPEK
QFSM
YKMS
VRAK
NFQF
ARHP
GQYG
MVDL
EQCS
NVRV
KCNF
VLRL
VDIF
PMSV
CSCS
PTYP
RHQR
ERAY
SARG
HPYV
IVNI
VGVC
LCFC
FHPL
FLPE
PMTL
NLQL
EQTT
REVR
EGFR
CAQS
IGRG
VSFS
MRWS
MSLG
LELV
NNYT
QKVM
RDEV
YGYL
QQSH
FVNL
PTSQ
QRTN
KQQV
LGLT
DTPA
NTDY
PGTW
EMRG
DVYS
HVQY
PRWD
AGRT
FLVL
CSMG
GLEV
ESFT
IRIR
SGAD
TNHC
TAGS
TRLG
ICAT
RQEL
VHRV
HSRL
NNTH
AKAG
GKSS
ERCR
QSTN
QPQV
SRGM
LTAG
HGNA
EPAR
SPAS
IVDV
QVNN
LFNG
RWHL
HDRA
IDRS

one-hybrid fitness for binding parS DNA, 0.25:
RRMY

one-hybrid fitness for binding parS DNA, 0.592:
RRRH

one-hybrid fitness for binding parS DNA, 0.207:
FRDI

one-hybrid fitness for binding parS DNA, 1.01:
RMAG

one-hybrid fitness for binding parS DNA, 0.227:
RCGW

one-hybrid fitness for binding parS DNA, 0.497:
RMTY

one-hybrid fitness for binding parS DNA, 0.301:
RFVY

one-hybrid fitness for binding parS DNA, 0.793:
RYKS

one-hybrid fitness for binding parS DNA, 1:
RACS
